# Assay results reported in paper PMC4336329 (PLoS ONE, 2015).
# About 2,200 (0.71%) of roughly 310,000 compounds showed an effect of 50% or more. The effect is printed as a negative number. The list shows a part of the results.
# Target: human ether-à-go-go-related gene (hERG) potassium channel (human, UniProt Q12809)
# Assay: primary screen, population patch clamp on CHO cells stably expressing hERG
# Chain of human ether-à-go-go-related gene (hERG) potassium channel (Q12809 whole entry, looked up): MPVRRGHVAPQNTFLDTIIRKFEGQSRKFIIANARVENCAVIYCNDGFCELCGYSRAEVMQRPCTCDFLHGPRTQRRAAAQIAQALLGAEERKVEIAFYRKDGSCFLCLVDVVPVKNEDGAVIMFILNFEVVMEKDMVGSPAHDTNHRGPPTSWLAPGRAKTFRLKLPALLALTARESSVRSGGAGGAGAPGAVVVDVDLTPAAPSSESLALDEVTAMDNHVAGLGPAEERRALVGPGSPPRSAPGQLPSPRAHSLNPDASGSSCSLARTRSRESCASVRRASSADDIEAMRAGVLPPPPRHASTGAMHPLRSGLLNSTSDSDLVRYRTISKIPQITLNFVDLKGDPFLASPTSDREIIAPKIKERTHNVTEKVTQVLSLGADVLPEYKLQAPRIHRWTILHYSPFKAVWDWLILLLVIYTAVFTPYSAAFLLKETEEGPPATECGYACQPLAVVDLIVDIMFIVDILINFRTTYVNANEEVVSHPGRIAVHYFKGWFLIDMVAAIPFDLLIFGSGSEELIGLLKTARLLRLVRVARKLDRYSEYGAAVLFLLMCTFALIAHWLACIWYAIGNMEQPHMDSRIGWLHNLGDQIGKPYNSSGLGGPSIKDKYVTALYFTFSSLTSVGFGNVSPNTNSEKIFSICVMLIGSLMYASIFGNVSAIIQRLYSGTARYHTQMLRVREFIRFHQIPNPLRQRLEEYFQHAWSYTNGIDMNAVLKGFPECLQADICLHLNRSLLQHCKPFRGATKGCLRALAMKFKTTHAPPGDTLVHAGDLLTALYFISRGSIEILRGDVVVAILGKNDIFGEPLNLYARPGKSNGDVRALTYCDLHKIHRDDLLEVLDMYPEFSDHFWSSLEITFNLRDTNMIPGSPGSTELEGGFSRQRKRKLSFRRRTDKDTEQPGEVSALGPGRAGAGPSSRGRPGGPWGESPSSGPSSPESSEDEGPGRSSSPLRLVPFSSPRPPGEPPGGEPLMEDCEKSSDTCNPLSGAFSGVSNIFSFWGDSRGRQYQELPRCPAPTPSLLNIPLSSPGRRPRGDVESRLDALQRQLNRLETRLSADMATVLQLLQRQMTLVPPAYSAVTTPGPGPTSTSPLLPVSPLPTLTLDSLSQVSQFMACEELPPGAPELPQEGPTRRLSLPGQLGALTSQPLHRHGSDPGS
row,Structure (SMILES),"hERG current change (%, negative = inhibition) at 1uM [%]"
1,COc1ccc(CSc2nc(C)cc(C)c2C#N)cc1,19.6
2,Cc1cccc(C(CC(=O)N2CCCCC2)c2ccccc2)c1O (centres unmarked),6.38
3,COc1ccc(C(OC(=O)c2ccco2)C(=O)NC(C)(C)C)cc1 (centres unmarked),18.2
4,O=c1[nH]c2cc(C(F)(F)F)ccc2n1-c1cc(C(F)(F)F)ccc1O,8.01
5,CC(C)N(CCc1ccncc1)C(=S)Nc1cccc(Cl)c1,-23.2
6,CN(c1ccccc1)S(=O)(=O)c1cccc(C(=O)OCC(=O)Nc2ccc3[nH]c(=O)[nH]c3c2)c1,21.1
7,COc1ccc(OCCCC(=O)NC(C)c2ccccc2)cc1 (centres unmarked),8.81
8,O=C(COC(=O)CCN1C(=O)C2CC=CCC2C1=O)Nc1ccc(Cl)cc1F (centres unmarked),-2.89
9,COCCNc1nc2sc3c(c2c(=O)n1Cc1ccco1)CCCCC3,15.7
10,CC(C)c1ccc(NC(=S)NC2CCN(Cc3ccccc3)CC2)cc1,5.77
11,CCCn1c(C2CC(=O)N(c3ccc(C)cc3)C2)nc2ccccc21 (centres unmarked),-4.12
12,Cc1cc(C(=O)COC(=O)c2ccc(O)cc2)c(C)n1-c1ccccc1F,13.2
13,O=C(Oc1ccc([N+](=O)[O-])cc1)c1ccc(Cl)c(S(=O)(=O)N2CCCCC2)c1,14.5
14,Cc1n[nH]c(C)c1N1C(=O)c2cccc3cc(Br)cc(c23)C1=O,14.7
15,CC(C)NNC(=O)c1ccncc1.O=P(O)(O)O,21.7
16,Br.CC(C)(C)C(=O)CN1C2=NCCCN2c2ccccc21,-46.9
17,Cc1ccc(N(C(=O)CNC(=O)c2ccco2)C(C(=O)NC2CCCCC2)c2cccnc2)cc1C (centres unmarked),13.6
18,CN(Cc1nc2ccccc2c(=O)[nH]1)c1ccccc1,8.15
19,CCN(CC(=O)Nc1ccc(NC(C)=O)cc1)C(=O)/C=C/c1ccc([N+](=O)[O-])cc1,6.94

row,Structure (SMILES),"hERG current change (%, negative = inhibition) at 1uM [%]"
1,CCOC(=O)CNc1nc(Cl)nc(NC(C)(C)C)n1,17.4
2,CCc1ccc(OCC(=O)N/N=C(\C)c2ccccc2OC(F)F)cc1,16.5
3,O=S(=O)(Cc1cc(-c2ccc(Cl)cc2)no1)c1ccccc1,3.33
4,CCn1nccc1C(=O)Nc1ccc(S(=O)(=O)NC23CC4CC(CC(C4)C2)C3)cc1,6.38
5,CCn1cc(C(=O)N[C@@H](CCSC)C(=O)NCCOC)c(=O)c2cc3c(cc21)OCO3,9.43
6,COc1ccc(S(=O)(=O)Nc2nnc(CC(C)(C)C)s2)cc1,10.6
7,Cc1c(C(=O)N2CCN(CCc3ccccc3)CC2)oc2ccccc12,-36
8,CCOCCCNC(=O)c1c[nH]c2ccc(S(=O)(=O)Nc3cccc(OC)c3)cc2c1=O,18.4
9,Cc1ccc(NC(=O)CSc2nc3ncc(Cl)cc3[nH]2)c(C)c1,13.7
10,COc1ccccc1NS(=O)(=O)c1ccc(NC(=O)N2CCCCC2)cc1,14.1
11,Cc1cccc(C)c1NC(=O)COC(=O)c1cc(=O)c2ccccc2o1,10.2
12,CCOC(=O)CC1(NC(=O)C2CCC(=O)N(C3CC3)C2)CCCCC1 (centres unmarked),12.7
13,Cn1c(C(=O)N2CCC(C(N)=O)CC2)cc2cc(Cl)ccc21,6.38
14,CCN(C(=O)CSc1nnc(-c2ccco2)n1CC)c1c(N)n(Cc2ccccc2)c(=O)[nH]c1=O,7.69
15,COC(=O)c1cccc(NC(=O)c2cccc([N+](=O)[O-])c2)c1,7.9
16,CCn1c(CNc2ccc(F)cc2)nnc1SCC#N,11.3
17,O=C(Cc1ccccc1)Nc1ccc(NC(=O)c2ccco2)cc1Cl,6.66
18,Clc1ccc(OCCCCN2CCCCC2)cc1.O=C(O)C(=O)O,-37.4
19,Cc1nc(-c2c(C(F)(F)F)noc2-c2ccc(O)cc2O)cs1,7.28

row,Structure (SMILES),"hERG current change (%, negative = inhibition) at 1uM [%]"
1,COc1cc(C2/C(=C(\O)c3ccc4c(c3)CC(C)O4)C(=O)C(=O)N2CCN2CCOCC2)cc(OC)c1OC (centres unmarked),-1.31
2,O=C(Cc1cn2ccsc2n1)Nc1ccccc1Oc1ccccc1,-2.4
3,COc1ccccc1OCC(O)CN1C(=O)NC(C)(C)C1=O (centres unmarked),15.3
4,O=C1CCC(O)CCN1CCSc1ccccc1 (centres unmarked),8.18
5,Cn1c(CNc2ccc(Cl)cc2)nnc1SCc1ccccc1,16.1
6,Cc1ccc(C(=S)NCS(=O)(=O)c2ccc(C)cc2)cc1,16.7
7,CC1(C)Cc2c(sc(NC(=O)C(=O)N3CCCC3)c2C#N)CO1,11.2
8,CC(C)(C)C(=O)N1CCC[C@H]1C(O)(c1ccccc1)c1ccccc1,2.91
9,COc1ccc(-c2csc(NC(=O)c3ccc(S(=O)(=O)N4CCc5ccccc5C4)cc3)n2)cc1,2.55
10,CC1CCN(c2ccc(S(=O)(=O)NC3=NCCCCC3)cc2[N+](=O)[O-])CC1,15
11,COc1ccc2nc(C)cc(Nc3ccc(C)cc3)c2c1.Cl,1.14
12,CCCn1c(N)c(C(=O)CSc2nc3ncc(Cl)cc3[nH]2)c(=O)n(C)c1=O,9.02
13,O=C(CN1CCN(c2ccccn2)CC1)Nc1nc2ccccc2s1,-16.9
14,CCCN1CNC(=S)N(c2ccccc2OCC)C1,10.6
15,CN(C)c1ccc(C(=O)OCC(=O)NCC2CCCO2)cc1 (centres unmarked),4.87
16,CCN(CC)CCN(Cc1cc2cc3c(cc2[nH]c1=O)OCO3)C(=S)NCC1CCCO1 (centres unmarked),-2.45
17,N#CCSc1n[nH]c2nc3c(c(=O)n12)C1(CCCCC1)Cc1ccccc1-3,14.7
18,CCCn1nc2cc(C(=O)NCc3ccc4c(c3)OCO4)ccc2c1OCC,10.4
